# The supplement of paper PMC7826260
# This is one part of the list. Viral Rep nickase domains cut single-stranded DNA in vitro (3 µM enzyme, 1 h, 37 °C); shown is the middle of each 90-letter strand. The score is log2 (uncut reads / reads without enzyme); more negative means more cut, near 0 not cut, and no call is made. The scaling is to total reads; uncut strands gain when others are lost, and binding without cutting may add a little.
# Key:
# Experiment in all cases: uncleaved DNA left, log2 of reads against the no-enzyme library (log2 ratio); higher = less cleavage (more negative = more Rep cleavage of the k-mer); sequences stand for … in CTCGTCCG…ACCGGAGA
# [1] = test system: T1, Rep nickase domain of Muscovy duck circovirus
# T1 sequence (residues 1-111 of Rep, tag left off): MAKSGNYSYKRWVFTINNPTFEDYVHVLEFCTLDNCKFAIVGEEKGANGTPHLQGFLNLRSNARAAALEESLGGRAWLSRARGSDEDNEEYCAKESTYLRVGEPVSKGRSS
# Procedure: (§1)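 A pool of 90-nt single-stranded DNAs with seven random bases just before the constant AC of the nick site (name = the seven bases) was cut by 3 µM recombinant His6-SUMO-tagged Rep nickase domain (300 nM DNA, 50 mM HEPES pH 8.0, 50 mM NaCl, 1 mM MnCl2, 1 h, 37 °C, three replicates). Uncut DNA was amplified and sequenced.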
# [2] = test system: T2, Rep nickase domain of banana bunchy top virus
# T2 sequence (residues 1-94 of Rep, tag left off): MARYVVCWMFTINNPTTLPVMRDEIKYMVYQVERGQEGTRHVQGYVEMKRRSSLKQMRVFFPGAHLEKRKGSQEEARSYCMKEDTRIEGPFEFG
# Procedure: as §1
# [3] = test system: T3, Rep nickase domain of cabbage leaf curl virus
# T3 sequence (residues 1-116 of Rep, tag left off): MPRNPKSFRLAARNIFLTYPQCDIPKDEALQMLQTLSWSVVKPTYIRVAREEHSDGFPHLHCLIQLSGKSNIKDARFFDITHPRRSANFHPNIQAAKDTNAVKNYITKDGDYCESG
# Procedure: as §1
# [4] = test system: T4, Rep nickase domain of chickpea chlorotic dwarf virus
# T4 sequence (residues 1-124 of Rep, tag left off): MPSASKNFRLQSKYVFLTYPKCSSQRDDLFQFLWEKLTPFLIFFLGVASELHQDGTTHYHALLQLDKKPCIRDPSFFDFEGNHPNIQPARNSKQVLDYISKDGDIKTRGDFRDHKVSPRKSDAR
# Procedure: as §1
# [5] = test system: T5, Rep nickase domain of faba bean necrotic yellows virus
# T5 sequence (residues 1-98 of Rep, tag left off): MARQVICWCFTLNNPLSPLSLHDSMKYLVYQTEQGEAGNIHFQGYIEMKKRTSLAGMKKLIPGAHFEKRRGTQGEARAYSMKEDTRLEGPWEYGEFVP
# Procedure: as §1
# [6] = test system: T6, Rep nickase domain of maize striate mosaic virus
# T6 sequence (residues 1-117 of Rep, tag left off): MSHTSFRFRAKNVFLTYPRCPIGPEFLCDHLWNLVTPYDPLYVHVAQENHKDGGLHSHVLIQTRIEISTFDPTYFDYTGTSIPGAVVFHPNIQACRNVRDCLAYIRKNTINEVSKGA
# Procedure: as §1
# [7] = test system: T7, Rep nickase domain of porcine circovirus 2
# T7 sequence (residues 2-116 of Rep, tag left off): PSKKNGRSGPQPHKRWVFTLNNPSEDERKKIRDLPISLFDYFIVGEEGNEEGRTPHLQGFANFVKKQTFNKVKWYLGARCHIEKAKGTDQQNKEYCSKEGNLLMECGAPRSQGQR
# Procedure: as §1
# [8] = test system: T8, Rep nickase domain of tomato yellow leaf curl virus
# T8 sequence (residues 1-136 of Rep, tag left off): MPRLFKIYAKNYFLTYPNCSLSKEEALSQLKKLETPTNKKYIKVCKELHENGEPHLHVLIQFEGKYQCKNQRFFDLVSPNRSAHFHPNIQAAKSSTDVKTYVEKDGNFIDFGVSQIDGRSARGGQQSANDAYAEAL
# Procedure: as §1
# [9] = test system: T9, Rep nickase domain of wheat dwarf virus
# T9 sequence (residues 1-137 of Rep, tag left off): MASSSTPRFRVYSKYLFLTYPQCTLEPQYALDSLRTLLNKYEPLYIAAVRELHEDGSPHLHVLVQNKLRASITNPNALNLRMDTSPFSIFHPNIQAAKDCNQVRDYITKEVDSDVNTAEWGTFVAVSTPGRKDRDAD
# Procedure: as §1
Sequence,uncleaved DNA left (log2) [1],uncleaved DNA left (log2) [2],uncleaved DNA left (log2) [3],uncleaved DNA left (log2) [4],uncleaved DNA left (log2) [5],uncleaved DNA left (log2) [6],uncleaved DNA left (log2) [7],uncleaved DNA left (log2) [8],uncleaved DNA left (log2) [9]
GGTCTCA,-0.0235,0.0936,0.303,0.905,-0.176,1.73,0.0691,0.0916,0.0904
ACGGTTT,-0.111,-0.218,-0.106,-1.5,-0.107,0.382,-0.118,-0.197,-0.251
TTGGAAA,0.0142,-0.0299,0.353,0.77,0.018,0.575,0.0164,-0.0249,0.0191
TCGCCTT,0.13,-0.0831,-0.0458,-1.5,-0.00352,-0.243,-0.419,-0.0302,0.0307
CCATGCC,-0.0186,0.0345,-0.584,-0.634,-0.0241,-1.18,0.0333,-0.0552,-0.186
ATTATAG,-0.0383,0.0511,-0.802,-0.443,0.0305,-1.24,0.143,0.103,-0.0418
AGTGCTA,-0.0239,0.00255,0.175,0.359,-0.0752,0.843,-0.239,-0.0319,0.0511
GGAAGTT,-0.0251,0.0391,0.679,1.46,-0.0848,1.99,0.135,0.00555,0.107
TACGTTA,-0.0224,-0.119,-0.223,-2.43,0.0498,-0.477,-0.24,-0.154,-0.205
AGGTACA,0.00586,-0.0122,0.178,0.0958,-0.00754,0.735,-0.0681,0.0748,0.0737
ACATCAG,0.00329,0.0858,-0.478,0.414,0.161,-0.61,0.184,0.11,-0.0155
AGTCGAG,0.0714,0.0511,-0.14,0.242,0.0945,-0.565,0.069,0.0897,0.119
TAGGGTA,0.0893,-0.0618,0.406,0.707,-0.0994,1.6,-0.273,-0.102,0.102
ATAGCAG,0.128,-0.00247,-0.539,-0.412,0.102,-0.965,0.26,0.0561,-0.0362
TTCGGTA,0.123,0.102,0.144,0.0952,0.0573,0.491,-0.0665,0.0701,0.0321
CTGTACT,-3.15,-1.99,-0.28,-2.58,-2.47,-0.492,-3.51,0.0861,-0.0806
TGACCAG,-0.0208,0.111,-0.476,-0.44,-0.000982,-0.859,-0.0503,0.135,0.074
GACTTTG,-0.106,-0.167,-0.257,-0.0922,-0.224,-0.498,-0.24,-0.162,-0.177
TGACCTC,-0.0217,-0.00777,0.114,0.459,-0.0618,1.17,0.0828,0.0374,0.11
GGCCAGG,0.14,0.107,0.487,1.25,-0.0285,1.58,0.206,0.0467,0.179
CGTAAGC,-0.117,0.00874,0.273,0.685,-0.0197,0.0802,0.0415,0.0383,-0.113
TTCCAGC,-0.0667,-0.0339,-0.153,-0.479,0.00238,-0.872,0.0566,0.0297,-0.0129
TGTCCTT,-0.099,-0.0563,-0.0545,-1.14,-0.186,0.461,-0.536,-0.0379,-0.0318
AAACAGC,-0.133,-0.0227,-0.295,-0.874,-0.0369,-1.04,0.137,-0.011,-0.0618
TGCCGGT,-0.101,-0.119,0.175,0.301,-0.167,0.479,-0.0127,-0.139,-0.0649
TCCCAAA,-0.108,0.134,0.251,0.154,0.0539,-0.223,0.168,0.209,0.172
GATGGCT,0.139,0.0103,0.047,0.0697,-0.0151,0.0391,0.112,0.0253,-0.0442
AGAGCGT,0.103,-0.0019,-0.303,-0.308,0.0636,-0.656,0.0607,0.168,0.0444
ATTTATA,-0.169,-0.0703,-0.0465,-1.77,0.0423,-0.461,-0.203,0.122,0.0917
CCTATGC,0.101,-0.0779,-0.577,-0.687,-0.114,-1.27,0.0811,0.0536,0.0188
